Results are given in words; binding and its absence hold for the method and conditions named. For some assays here: In cells and extracts the contact can be indirect. Some entries that bind do so weakly or less than the wild type. Where a sequence is shown, tags or fusion partners need not be part of it.
Assays:
[1] = biological target: T1, SnRK2.1 fused to the GAL4 DNA-binding domain (Arabidopsis) (UniProt P43292); assay: two-hybrid; SnRK2s in pGBKT7 (GAL4 DNA-binding domain), ABI1 in pGADT7 (GAL4-activating domain); Y2H Gold strain; growth of culture dilutions on SD -L-W-H, 3 days at 28°C
T1 sequence: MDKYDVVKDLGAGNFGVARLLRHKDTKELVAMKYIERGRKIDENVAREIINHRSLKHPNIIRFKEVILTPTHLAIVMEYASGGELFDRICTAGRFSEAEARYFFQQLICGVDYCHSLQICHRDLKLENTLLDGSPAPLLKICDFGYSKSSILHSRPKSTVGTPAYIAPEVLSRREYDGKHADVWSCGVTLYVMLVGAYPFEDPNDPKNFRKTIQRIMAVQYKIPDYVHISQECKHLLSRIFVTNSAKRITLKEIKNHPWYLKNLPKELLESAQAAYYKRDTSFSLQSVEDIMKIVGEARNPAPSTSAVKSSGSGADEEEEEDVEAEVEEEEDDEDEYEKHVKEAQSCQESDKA

[2] = biological target: T2, SnRK2.4 fused to the GAL4 DNA-binding domain (Arabidopsis) (UniProt P43291); assay: as above
T2 sequence: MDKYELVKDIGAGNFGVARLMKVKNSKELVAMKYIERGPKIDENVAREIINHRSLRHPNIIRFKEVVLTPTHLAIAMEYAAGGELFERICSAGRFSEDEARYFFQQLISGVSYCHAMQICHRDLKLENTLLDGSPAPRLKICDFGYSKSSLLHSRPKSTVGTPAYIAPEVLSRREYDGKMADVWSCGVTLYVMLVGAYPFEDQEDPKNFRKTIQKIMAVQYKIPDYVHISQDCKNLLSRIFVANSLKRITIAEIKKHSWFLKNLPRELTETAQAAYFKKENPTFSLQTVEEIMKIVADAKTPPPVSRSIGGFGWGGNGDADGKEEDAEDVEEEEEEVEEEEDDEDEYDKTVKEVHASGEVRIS

[3] = biological target: T3, SnRK2.5 fused to the GAL4 DNA-binding domain (Arabidopsis) (UniProt Q9FFP9); assay: as above
T3 sequence: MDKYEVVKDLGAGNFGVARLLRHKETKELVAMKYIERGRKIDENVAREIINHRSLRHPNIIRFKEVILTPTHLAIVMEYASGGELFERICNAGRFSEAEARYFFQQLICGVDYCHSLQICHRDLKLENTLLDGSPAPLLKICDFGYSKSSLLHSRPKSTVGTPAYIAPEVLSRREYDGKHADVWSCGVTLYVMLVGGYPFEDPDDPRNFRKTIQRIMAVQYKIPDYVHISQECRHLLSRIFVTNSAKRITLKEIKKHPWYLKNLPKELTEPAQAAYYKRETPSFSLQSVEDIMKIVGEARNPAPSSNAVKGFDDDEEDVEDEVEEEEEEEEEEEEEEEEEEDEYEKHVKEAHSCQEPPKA

[4] = biological target: T4, SnRK2.9 fused to the GAL4 DNA-binding domain (Arabidopsis) (UniProt O64812); assay: as above
T4 sequence: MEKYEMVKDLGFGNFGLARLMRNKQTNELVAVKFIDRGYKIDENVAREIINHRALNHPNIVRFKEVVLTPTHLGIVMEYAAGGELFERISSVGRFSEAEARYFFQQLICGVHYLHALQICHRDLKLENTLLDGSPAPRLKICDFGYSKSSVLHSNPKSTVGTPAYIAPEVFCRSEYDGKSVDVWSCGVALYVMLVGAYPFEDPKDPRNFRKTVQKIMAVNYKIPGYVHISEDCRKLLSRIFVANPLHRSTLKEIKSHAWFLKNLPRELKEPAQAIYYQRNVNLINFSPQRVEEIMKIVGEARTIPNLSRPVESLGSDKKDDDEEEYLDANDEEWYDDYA

[5] = biological target: T5, SnRK2.1 nLUC fusion (Arabidopsis) (UniProt P43292); assay: split reporter; split-LUC complementation; SnRK2s in pCAMBIA-35S-nLUC, PP2Cs in pCAMBIA-35S-cLUC; transient expression in N. benthamiana leaves, LUC activity read 2 days after infiltration with D-luciferin
T5 sequence: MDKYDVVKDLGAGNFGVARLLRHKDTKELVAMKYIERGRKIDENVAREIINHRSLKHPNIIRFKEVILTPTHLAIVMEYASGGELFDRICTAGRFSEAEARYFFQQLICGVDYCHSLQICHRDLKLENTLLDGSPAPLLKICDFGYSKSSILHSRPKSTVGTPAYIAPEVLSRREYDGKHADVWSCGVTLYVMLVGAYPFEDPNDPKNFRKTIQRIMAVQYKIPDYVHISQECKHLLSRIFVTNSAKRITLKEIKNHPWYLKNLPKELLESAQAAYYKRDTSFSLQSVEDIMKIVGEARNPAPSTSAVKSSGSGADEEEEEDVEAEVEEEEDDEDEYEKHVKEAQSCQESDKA

[6] = biological target: T6, SnRK2.4 nLUC fusion (Arabidopsis) (UniProt P43291); assay: as above
T6 sequence: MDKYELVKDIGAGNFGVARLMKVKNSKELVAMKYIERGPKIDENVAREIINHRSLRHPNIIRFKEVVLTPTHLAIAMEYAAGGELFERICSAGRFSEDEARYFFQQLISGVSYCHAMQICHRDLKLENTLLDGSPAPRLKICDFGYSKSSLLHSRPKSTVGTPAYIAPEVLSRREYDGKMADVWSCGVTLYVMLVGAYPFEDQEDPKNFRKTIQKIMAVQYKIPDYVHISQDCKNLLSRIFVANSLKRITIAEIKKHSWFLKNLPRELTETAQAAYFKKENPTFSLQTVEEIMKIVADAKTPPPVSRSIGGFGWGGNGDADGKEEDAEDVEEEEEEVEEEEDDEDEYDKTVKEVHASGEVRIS

[7] = biological target: T7, SnRK2.1-nYFP (Arabidopsis) (UniProt P43292); assay: split reporter; BiFC (split-YFP); SnRK2s-nYFP with ABI1-cYFP or At4g33920-cYFP, agro-infiltrated into N. benthamiana leaves, 48 hours in the dark, confocal microscopy
T7 sequence: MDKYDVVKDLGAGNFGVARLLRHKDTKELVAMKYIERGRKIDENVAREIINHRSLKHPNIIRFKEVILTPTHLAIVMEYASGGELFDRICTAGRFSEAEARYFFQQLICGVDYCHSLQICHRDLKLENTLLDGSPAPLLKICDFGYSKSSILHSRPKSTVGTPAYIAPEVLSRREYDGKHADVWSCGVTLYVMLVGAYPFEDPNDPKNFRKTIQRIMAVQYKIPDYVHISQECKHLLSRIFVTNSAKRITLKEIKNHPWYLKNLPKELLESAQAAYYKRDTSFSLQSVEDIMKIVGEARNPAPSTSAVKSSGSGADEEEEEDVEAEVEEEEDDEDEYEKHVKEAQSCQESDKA

[8] = biological target: T8, SnRK2.4-nYFP (Arabidopsis) (UniProt P43291); assay: as above
T8 sequence: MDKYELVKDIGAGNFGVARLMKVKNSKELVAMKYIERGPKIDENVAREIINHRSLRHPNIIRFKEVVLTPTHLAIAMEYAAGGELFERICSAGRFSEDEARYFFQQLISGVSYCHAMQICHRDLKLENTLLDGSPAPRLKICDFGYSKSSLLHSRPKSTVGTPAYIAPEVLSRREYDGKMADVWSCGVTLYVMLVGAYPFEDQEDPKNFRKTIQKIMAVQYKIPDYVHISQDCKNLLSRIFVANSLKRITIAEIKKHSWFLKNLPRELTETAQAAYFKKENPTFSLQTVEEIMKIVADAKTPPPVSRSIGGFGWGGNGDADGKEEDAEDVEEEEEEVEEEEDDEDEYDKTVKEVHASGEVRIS

[9] = biological target: T9, SnRK2.10 fused to the GAL4 DNA-binding domain (Arabidopsis), Q9C958; assay: two-hybrid; SnRK2s in pGBKT7 (GAL4 DNA-binding domain), ABI1 in pGADT7 (GAL4-activating domain); Y2H Gold strain; growth of culture dilutions on SD -L-W-H, 3 days at 28°C; conditions: remark: other sources report otherwise
T9 chain: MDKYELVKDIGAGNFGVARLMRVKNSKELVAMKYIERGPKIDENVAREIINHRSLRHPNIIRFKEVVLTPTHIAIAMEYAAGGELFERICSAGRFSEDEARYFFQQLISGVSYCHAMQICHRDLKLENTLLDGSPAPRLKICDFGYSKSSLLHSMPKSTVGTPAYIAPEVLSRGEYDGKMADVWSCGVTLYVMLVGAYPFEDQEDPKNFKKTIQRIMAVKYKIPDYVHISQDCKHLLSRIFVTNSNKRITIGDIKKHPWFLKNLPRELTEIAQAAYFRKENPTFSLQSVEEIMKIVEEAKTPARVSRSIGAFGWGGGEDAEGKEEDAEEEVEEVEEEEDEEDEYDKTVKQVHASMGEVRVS

Molecule: ABA-insensitive 1 (ABI1) fused to the GAL4-activating domain (from UniProt P49597 1-434) (enzyme)
- binding [1]: binds
- binding [2]: binds
- binding [3]: binds
- binding [4]: no binding

Molecule: ABI1 cLUC fusion (from UniProt P49597 1-434) (enzyme)
- binding [5]: binds
- binding [6]: binds

Molecule: ABI1-cYFP (from UniProt P49597 1-434) (enzyme)
- binding [7]: binds
- binding [8]: binds

B1: ABA-insensitive 1 (ABI1) fused to the GAL4-activating domain, P49597 1-434 (enzyme)
chain: MEEVSPAIAGPFRPFSETQMDFTGIRLGKGYCNNQYSNQDSENGDLMVSLPETSSCSVSGSHGSESRKVLISRINSPNLNMKESAAADIVVVDISAGDEINGSDITSEKKMISRTESRSLFEFKSVPLYGFTSICGRRPEMEDAVSTIPRFLQSSSGSMLDGRFDPQSAAHFFGVYDGHGGSQVANYCRERMHLALAEEIAKEKPMLCDGDTWLEKWKKALFNSFLRVDSEIESVAPETVGSTSVVAVVFPSHIFVANCGDSRAVLCRGKTALPLSVDHKPDREDEAARIEAAGGKVIQWNGARVFGVLAMSRSIGDRYLKPSIIPDPEVTAVKRVKEDDCLILASDGVWDVMTDEEACEMARKRILLWHKKNAVAGDASLLADERRKEGKDPAAMSAAEYLSKLAIQRGSKDNISVVVVDLKPRRKLKSKPLN
- binding [9]: binds

B2: At4g33920-cYFP (enzyme, UniProt O81760 1-380)
chain: MLRALARPLERCLGSRASGDGLLWQSELRPHAGGDYSIAVVQANSRLEDQSQVFTSSSATYVGVYDGHGGPEASRFVNRHLFPYMHKFAREHGGLSVDVIKKAFKETEEEFCGMVKRSLPMKPQMATVGSCCLVGAISNDTLYVANLGDSRAVLGSVVSGVDSNKGAVAERLSTDHNVAVEEVRKEVKALNPDDSQIVLYTRGVWRIKGIIQVSRSIGDVYLKKPEYYRDPIFQRHGNPIPLRRPAMTAEPSIIVRKLKPQDLFLIFASDGLWEHLSDETAVEIVLKHPRTGIARRLVRAALEEAAKKREMRYGDIKKIAKGIRRHFHDDISVIVVYLDQNKTSSSNSKLVKQGGITAPPDIYSLHSDEAEQRRLLNVLY
- binding [7]: no binding
- binding [8]: no binding
